Results reported in PubChem BioAssay (Tox21).
Several values for one entry are separate records, joined by “and”; a condition that tells them apart may be missing. Equal entries are not always repeated. This list was built around the results that the source calls inconclusive (neither active nor inactive); the mix of calls is not that of the screen. Potencies of inconclusive entries are doubtful fits and often do not repeat. Activity calls are given as the source filed them. Unless noted, calls follow the shape of the dose curve; as a rule, active = well fitted curve in the direction sought with a large enough effect in the repeat runs; inconclusive = weak or mixed curves; inactive = no such curve, though single readings can be large; an effect the other way counts as inactive or inconclusive. *1 amine or outer side, *2 acyl side, *3 side chain or, on linkers, in order; H or OH if unused. Where a SMILES comes first, the peptide text is derived from it. Bridges are numbered along the chain shown (N, C = ends). Roman numbers before positions name the chains, in order. [ ]: non-standard residue; d: D form. Actinocin(9to1) = Cc1c2oc3c(C)ccc(C(=O)[*:1])c3nc-2c(C(=O)[*:2])c(N)c1=O; NMeV = CN[C@H](C(=O)O)C(C)C; Sar = CNCC(=O)O
Potency is read from the fitted curve at half-maximal effect; tags tell the direction and shape of the fitted curve or compound fluorescence and quenching.

Target: Androgen receptor (Homo sapiens) (UniProt P10275)
Chain of UniProt P10275 (P10275 whole entry, looked up): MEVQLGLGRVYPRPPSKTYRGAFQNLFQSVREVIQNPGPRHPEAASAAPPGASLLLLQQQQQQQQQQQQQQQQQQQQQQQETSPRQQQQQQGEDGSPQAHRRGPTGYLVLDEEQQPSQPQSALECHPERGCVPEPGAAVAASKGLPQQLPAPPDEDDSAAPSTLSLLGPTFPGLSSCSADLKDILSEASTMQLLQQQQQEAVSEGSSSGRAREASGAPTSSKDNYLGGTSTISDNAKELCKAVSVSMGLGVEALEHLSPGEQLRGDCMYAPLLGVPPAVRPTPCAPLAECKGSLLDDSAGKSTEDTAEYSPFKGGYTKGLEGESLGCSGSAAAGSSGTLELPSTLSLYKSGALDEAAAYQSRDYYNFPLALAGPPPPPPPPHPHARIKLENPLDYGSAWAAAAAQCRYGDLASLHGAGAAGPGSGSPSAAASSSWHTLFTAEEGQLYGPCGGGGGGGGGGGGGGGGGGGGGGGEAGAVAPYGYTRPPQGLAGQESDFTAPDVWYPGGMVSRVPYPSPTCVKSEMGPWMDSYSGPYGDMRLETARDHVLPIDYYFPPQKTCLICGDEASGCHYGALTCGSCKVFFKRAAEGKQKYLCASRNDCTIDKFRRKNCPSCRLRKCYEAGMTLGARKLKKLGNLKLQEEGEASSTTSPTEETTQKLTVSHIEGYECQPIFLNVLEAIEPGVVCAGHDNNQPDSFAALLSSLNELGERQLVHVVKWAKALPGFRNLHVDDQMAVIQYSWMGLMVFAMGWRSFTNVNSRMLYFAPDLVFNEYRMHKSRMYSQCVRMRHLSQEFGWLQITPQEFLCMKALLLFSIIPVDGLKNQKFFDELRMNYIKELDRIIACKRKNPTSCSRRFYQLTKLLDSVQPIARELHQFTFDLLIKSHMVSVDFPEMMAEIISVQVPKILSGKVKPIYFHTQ
Assay: qHTS assay to identify small molecule antagonists of the androgen receptor (AR) signaling pathway (AID 743035; active = well fitted inhibition curve with a large enough effect in the signal ratio in the repeat runs, not every such curve was filed as active; inconclusive = weak or mixed curves, or effect the other way; inactive = no such curve, though single readings can be large or run the other way; the % refers to the signal ratio; as to activity change, negative = inhibition: % is scaled to controls: 0 for no effect and ±100 for the full control effect)
Conditions: HEK293 AR-UAS-bla, R1881-stimulated, beta-lactamase FRET, 16 h; activity change, negative = inhibition: at 58.5 µM (top of the series) unless noted
Outline: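 Fluorescence from a beta-lactamase FRET substrate (LiveBLAzer B/G, 2 h, room temperature) measured inhibition of R1881-stimulated signaling in GeneBLAzer AR-UAS-bla HEK293 cells exposed to compound for 16 h at 37C.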
In the case of CCC(C)c1cc([N+](=O)[O-])cc([N+](=O)[O-])c1OC(=O)OC(C)C (stereo not drawn), the Potency is reported as inconclusive: 12.3 µM [full curve].
In the case of Clc1sc(Cl)c(Cl)c1Cl, the “activity change, negative = inhibition” value is reported as inactive: 10.5%.
In the case of NC(=O)C(=O)N/N=C/c1ccc([N+](=O)[O-])o1, the Potency is reported as inconclusive: 26.8 µM [falling, single point].
With NC(=O)c1ccccc1N the activity change, negative = inhibition was inconclusive: -0.0586% [at 78.9 µM].
With O=C(CCCCCCCCC#CI)Oc1ccccc1 the “activity change, negative = inhibition” value was inactive: -24.9%.
With O=C(O)Cn1c(=O)n(Cc2ccc(Br)cc2F)c(=O)c2ccc(Cl)cc21 the activity change, negative = inhibition was inconclusive: -2.21%.
In the case of CCCOc1ccc2nc(NC(=O)OC)[nH]c2c1, the Potency is reported as inconclusive: 0.239 µM [falling, full curve, poor fit].
In the case of Oc1ccc(Cl)c2cccnc12, the Potency is reported as active: 19 µM.
With COC(=O)c1cccc(C(=O)OC)c1 the Potency was “inactive”.
In the case of Cc1c2oc3c(C)ccc(C(=O)N[C@@H]4C(=O)N[C@H](C(C)C)C(=O)N5CCC[C@H]5C(=O)N(C)CC(=O)N(C)[C@@H](C(C)C)C(=O)O[C@@H]4C)c3nc-2c(C(=O)N[C@@H]2C(=O)N[C@H](C(C)C)C(=O)N3CCC[C@H]3C(=O)N(C)CC(=O)N(C)[C@@H](C(C)C)C(=O)O[C@@H]2C)c(N)c1=O (I: T[dV]P[Sar][NMeV] / II: T[dV]P[Sar][NMeV]; ester I:1-I:C, II:1-II:C; linker I:N-II:N via Actinocin(9to1)), the Potency is reported as active: 23.9 nM and active: 1 nM.

Target: Androgen receptor (Homo sapiens) (UniProt P10275)
Assay: qHTS assay to identify small molecule agonists of the androgen receptor (AR) signaling pathway (AID 743036; active = well fitted activation curve with a large enough effect in the signal ratio in the repeat runs, with a control signal flat, not every such curve was filed as active; inconclusive = weak or mixed curves, or effect the other way; inactive = no such curve, though single readings can be large or run the other way; the % refers to the signal ratio; as to activation: % is scaled to controls: 0 for no effect and ±100 for the full control effect)
Conditions: HEK293 AR-UAS-bla GripTite, beta-lactamase FRET ratio, 16 h; activation: at 62.4 µM (top of the series) unless noted
Outline: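 Agonist activity was scored by beta-lactamase reporter fluorescence in stably transfected HEK293 cells exposed to compounds for 16 h at 37C and 5% CO2. Substrate loading took 2 h at room temperature.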
With CCC(C)c1cc([N+](=O)[O-])cc([N+](=O)[O-])c1OC(=O)OC(C)C (stereo not drawn) the Potency was inconclusive: 7.76 µM.
For NC(=O)C(=O)N/N=C/c1ccc([N+](=O)[O-])o1, the Potency was inconclusive: 26.8 µM [activator].
For NC(=O)c1ccccc1N, the Potency was inconclusive: 11 µM [fluorescent, single point].
In the case of O=C(O)Cn1c(=O)n(Cc2ccc(Br)cc2F)c(=O)c2ccc(Cl)cc21, the Potency is reported as inconclusive: 24.5 µM [rising, partial curve, poor fit].
In the case of CCCOc1ccc2nc(NC(=O)OC)[nH]c2c1, the activation is reported as inconclusive: 29.8%.
For COC(=O)c1cccc(C(=O)OC)c1, the Potency was “inactive”.
With Cc1c2oc3c(C)ccc(C(=O)N[C@@H]4C(=O)N[C@H](C(C)C)C(=O)N5CCC[C@H]5C(=O)N(C)CC(=O)N(C)[C@@H](C(C)C)C(=O)O[C@@H]4C)c3nc-2c(C(=O)N[C@@H]2C(=O)N[C@H](C(C)C)C(=O)N3CCC[C@H]3C(=O)N(C)CC(=O)N(C)[C@@H](C(C)C)C(=O)O[C@@H]2C)c(N)c1=O (I: T[dV]P[Sar][NMeV] / II: T[dV]P[Sar][NMeV]; ester I:1-I:C, II:1-II:C; linker I:N-II:N via Actinocin(9to1)) the Potency was “inactive”.

Test system: not listed separately
Assay: qHTS assay to identify small molecule antagonists of the androgen receptor (AR) signaling pathway using the MDA cell line - cell viability counter screen (AID 743041; also: nearly all actives have a fitted effect of over 45% in size; as to viability change, negative = cytotoxic: % is scaled to controls: 0 for no effect and ±100 for the full control effect)
Conditions: MDA-kb2 viability, CellTiter-Fluor, 16 h, cells co-treated with R1881 androgen agonist; viability change, negative = cytotoxic: at 70.3 µM (top of the series) unless noted
Outline: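 Viability counter screen run alongside the AR antagonist reporter: cells seeded 5 h before compound, R1881 added, 16 h incubation at 37C without CO2, fluorescent CellTiter-Fluor signal quantified.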
In the case of CNCCCC12CCC(c3ccccc31)c1ccccc12, the Potency is reported as active: 61.1 µM and the viability change, negative = cytotoxic is reported as inconclusive: -31.9% [cytotoxic].
With CC(C)(C)NC(=O)[C@@H]1CN(Cc2cccnc2)CCN1C[C@@H](O)C[C@@H](Cc1ccccc1)C(=O)N[C@H]1c2ccccc2C[C@H]1O the Potency was inconclusive: 27.8 µM [cytotoxic, partial curve, poor fit].
In the case of Nc1cc(S(=O)(=O)O)cc2cc(S(=O)(=O)O)cc(O)c12, the Potency is reported as inconclusive: 24.3 µM [cytotoxic, partial curve, poor fit].
With CCC(C)c1cc([N+](=O)[O-])cc([N+](=O)[O-])c1OC(=O)OC(C)C (stereo not drawn) the Potency was active: 54.5 µM.
In the case of CC1Cc2ccccc2N1NC(=O)c1ccc(Cl)c(S(N)(=O)=O)c1 (stereo not drawn), the Potency is reported as inconclusive: 1.93 µM [rising, full curve, poor fit].
In the case of Oc1ccc(Cl)c2cccnc12, the Potency is reported as inconclusive: 22.1 µM [cytotoxic, partial curve, poor fit].
For COC(=O)c1cccc(C(=O)OC)c1, the viability change, negative = cytotoxic was inconclusive: 2.27%.
With CCOC(=O)c1ccccc1C(=C1C=C(Br)C(=O)C(Br)=C1)c1cc(Br)c(O)c(Br)c1 the Potency was inconclusive: 45.7 µM [cytotoxic, partial curve, poor fit].
For C=CC(=O)OCCn1c(=O)n(CCOC(=O)C=C)c(=O)n(CCOC(=O)C=C)c1=O, the Potency was active: 30.6 µM.
In the case of COC(=O)c1ccccc1, the Potency is reported as inconclusive: 95.9 µM [rising, single point].
For C=C(CC)C(=O)c1ccc(OCC(=O)O)c(Cl)c1Cl, the Potency was inconclusive: 27.8 µM [cytotoxic, partial curve].
In the case of CN[C@H]1CC[C@@H](c2ccc(Cl)c(Cl)c2)c2ccccc21, the Potency is reported as inconclusive: 31.2 µM [cytotoxic, single point].

Target: Androgen receptor (Homo sapiens) (UniProt P10275)
Assay: qHTS assay to identify small molecule antagonists of the androgen receptor (AR) signaling pathway using the MDA cell line (AID 743042; also: nearly all actives have a fitted effect of over 55% in size)
Conditions: MDA-kb2 AR-luc, MMTV luciferase, R1881 antagonist, 16 h; series mostly up to 70.3 µM; activity change, negative = inhibition: at the top concentration
Outline: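 MDA-kb2 cells (human breast carcinoma, stably carrying an MMTV-luciferase reporter responsive to AR and GR) were plated at 3,000 cells/well and preincubated 5 hr at 37C, then given compound plus R1881 agonist for 16 h. ONE-Glo luminescence was read.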
In the case of CCC(C)c1cc([N+](=O)[O-])cc([N+](=O)[O-])c1OC(=O)OC(C)C (stereo not drawn), the Potency is reported as active: 27.3 µM.
In the case of NC(=O)C(=O)N/N=C/c1ccc([N+](=O)[O-])o1, the Potency is reported as inconclusive: 29.8 µM [inhibitor, partial curve].
In the case of Oc1ccc(Cl)c2cccnc12, the Potency is reported as active: 9.44 µM.
